Measured values: the supplement of paper PMC12217912
The other results are listed elsewhere or left out. The full chains were built here from the parent and the listed change. Values near 0.05 are background.

B1: TEV protease; numbered along this chain (parent)
chain: MGESLFKGPRDYNPISSSICHLTNESDGHTTSLYGIGFGPFIITNKHLFRRNNGTLVVQSLHGVFKVKDTTTLQQHLVDGRDMIIIRMPKDFPPFPQKLKFREPQREERICLVTTNFQTKSMSSMVSDTSCTFPSGDGIFWKHWIQTKDGQCGSPLVSTRDGFIVGIHSASNFTNTNNYFTSVPKNFMELLTNQEAQQWVSGWRLNADSVLWGGHKVFMVKPEEPFQPVKEATQL

Variants of: B1
Assay: raw area under fraction-flipped curve 0-4 h after induction (AUC4h, not background-subtracted), DNA-recorder readout of cleavage of the substrate (dimensionless); higher = more cleavage of the substrate by the protease variant
Details: temperature: 34 °C; time window: 0-4 h after rhamnose induction
Description: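 In vivo DNA recorder in E. coli TOP10(DE3) ΔrhaA at 34 °C. Each TEVp single-site mutant (parent TEVp 0) is paired with a single-site variant of the 7-mer TEVs (canonical ENLYFQ|S). The substrate sits between flexible linkers in a Bxb1-sfGFP-TEVs-SsrA fusion, so cleavage stabilises Bxb1 and speeds flipping of a recombination array, read by NGS. The value is the raw area under the fraction-flipped curve over 0-4 h after rhamnose induction (AUC4h), with ≥20 reads per time point. It is not background-subtracted; inactive controls average about 0.047.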
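Also: Bxb1 expression induced with 0.2% (w/v) L-rhamnose at OD600 near 0.5, cultures sampled hourly, flipped fraction per protease–substrate barcode pair counted by paired-end Illumina sequencing.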

| Variant | area with substrate ENAYFQS | area with substrate ENCYFQS | area with substrate ENDYFQS | area with substrate ENEYFQS | area with substrate ENGYFQS | area with substrate ENHYFQS | area with substrate ENMYFQS | area with substrate ENNYFQS | area with substrate ENPYFQS | area with substrate ENQYFQS | area with substrate ENRYFQS | area with substrate ENSYFQS | area with substrate ENTYFQS | area with substrate ENVYFQS | area with substrate ENWYFQS | area with substrate ENIYFQS | area with substrate ENYYFQS | area with substrate ENFYFQS | area with substrate ENKYFQS |
| --- | --- | --- | --- | --- | --- | --- | --- | --- | --- | --- | --- | --- | --- | --- | --- | --- | --- | --- | --- |
| N175L | 0.0631 | 0.0629 | 0.0716 | 0.0487 | 0.0629 | 0.0617 | 0.0582 | 0.0663 | 0.0518 | 0.0608 | 0.06 | 0.0697 | 0.0649 | 0.0515 | 0.0492 | – | – | – | – |
| N175G | 0.0635 | 0.0498 | 0.0655 | 0.0725 | 0.0642 | – | – | – | 0.0491 | 0.0493 | – | 0.0613 | 0.0596 | 0.0597 | – | 0.102 | 0.026 | – | – |
| V183P | 0.0552 | 0.0735 | 0.0474 | 0.0585 | 0.0596 | 0.0566 | 0.0666 | 0.0624 | – | 0.0571 | – | 0.0516 | – | 0.017 | 0.0718 | – | 0.0573 | 0.0436 | 0.053 |
| V183A | 0.0603 | – | 0.0588 | – | 0.0695 | 0.0598 | – | 0.0481 | 0.0517 | 0.0662 | 0.0508 | 0.0576 | 0.0519 | 0.081 | 0.0377 | 0.123 | 0.0603 | – | – |
| M188S | 0.0603 | 0.0689 | 0.0445 | 0.038 | – | 0.0605 | – | – | 0.0605 | 0.0444 | – | 0.0582 | 0.0733 | 0.0688 | – | 0.0796 | 0.0588 | 0.0531 | 0.0483 |
| M188N | 0.0488 | – | 0.0543 | 0.0691 | – | – | 0.0534 | – | – | 0.0567 | – | 0.0618 | – | – | – | – | – | – | 0.07 |
| G166F | 0.0522 | 0.0488 | 0.0476 | 0.0586 | – | 0.0445 | – | – | 0.0498 | 0.0349 | – | 0.0551 | 0.0408 | 0.0577 | – | 0.0503 | – | 0.0356 | – |
| G166W | 0.0444 | 0.0489 | 0.0591 | – | 0.0553 | – | – | 0.0684 | – | – | 0.052 | 0.0445 | – | 0.074 | – | 0.0331 | 0.0532 | 0.0637 | 0.0588 |
| T181F | 0.0574 | 0.0505 | 0.05 | 0.0644 | – | 0.0664 | 0.0596 | 0.0575 | – | 0.0732 | 0.0113 | 0.027 | – | 0.0534 | – | – | – | 0.0538 | – |
| N178A | 0.0638 | – | – | 0.0581 | – | – | – | 0.0675 | – | – | 0.0458 | – | 0.0371 | – | 0.0708 | – | – | – | 0.0545 |
| T147F | 0.0595 | 0.06 | 0.0645 | 0.0693 | – | – | 0.0669 | 0.0642 | – | 0.0551 | 0.0578 | 0.0576 | 0.0476 | 0.059 | – | – | – | – | – |
| T147R | 0.0525 | 0.0695 | 0.0703 | 0.0456 | 0.0542 | 0.0548 | 0.0547 | 0.0599 | – | 0.0659 | 0.0589 | 0.0576 | 0.049 | 0.052 | – | – | 0.0492 | 0.0558 | 0.0549 |
| V165P | 0.0644 | 0.0447 | 0.0609 | 0.0498 | – | – | – | 0.0577 | 0.0737 | 0.0498 | 0.0489 | 0.0514 | 0.0511 | 0.0278 | – | – | – | – | 0.0793 |
| P155I | 0.0542 | 0.0573 | 0.0546 | 0.0613 | 0.0513 | 0.0556 | 0.0726 | – | 0.0374 | 0.0607 | 0.06 | 0.0639 | 0.0426 | 0.0791 | 0.0557 | 0.0606 | 0.0411 | 0.076 | 0.0649 |
| D149T | 0.0601 | 0.0645 | 0.0617 | 0.0646 | 0.0577 | 0.0586 | – | – | – | 0.0556 | 0.0745 | 0.0665 | 0.0661 | 0.0563 | – | – | 0.0564 | 0.0591 | 0.0662 |
| F187D | 0.0605 | 0.0464 | 0.0651 | – | 0.0562 | 0.0509 | – | – | – | 0.0439 | – | 0.0534 | 0.0526 | 0.05 | 0.0056 | 0.0599 | – | 0.0468 | – |
| F187R | 0.0462 | 0.0624 | 0.0598 | 0.0535 | 0.0594 | – | – | 0.0566 | – | 0.0511 | – | 0.0558 | 0.0655 | 0.0527 | – | – | 0.0487 | – | – |
| K148C | 0.0764 | 0.0841 | 0.0685 | 0.0663 | – | 0.0554 | 0.0849 | 0.0472 | 0.0664 | – | 0.0471 | 0.077 | 0.0644 | 0.0706 | – | 0.0834 | 0.0673 | 0.0502 | – |
| S158Y | 0.0466 | 0.0522 | – | 0.0525 | 0.0515 | – | – | 0.0553 | – | 0.0572 | 0.0518 | 0.0597 | 0.0504 | 0.0567 | – | 0.0481 | 0.0568 | 0.056 | – |
| Q151Y | 0.0689 | 0.0524 | 0.0642 | 0.0661 | – | 0.058 | – | 0.0699 | 0.0593 | 0.0477 | – | 0.0583 | 0.0476 | 0.0782 | 0.0587 | 0.1 | 0.0534 | – | – |
| Q151T | 0.0546 | 0.0516 | – | – | 0.0724 | 0.0702 | 0.0647 | – | 0.0387 | 0.0722 | – | 0.0659 | 0.0647 | 0.0575 | 0.0069 | 0.0974 | 0.0472 | 0.0603 | 0.0674 |
| Q151N | 0.082 | 0.0628 | 0.0601 | 0.065 | 0.063 | 0.0604 | – | 0.0672 | 0.0721 | 0.0573 | 0.058 | 0.0682 | 0.072 | 0.0628 | – | 0.0767 | 0.0499 | 0.0542 | 0.0594 |
| F173E | 0.0731 | 0.0602 | 0.0821 | 0.0594 | 0.0806 | – | – | 0.063 | – | 0.0625 | – | 0.0817 | – | 0.062 | 0.0082 | 0.0893 | – | – | – |
| F173H | 0.055 | 0.0774 | 0.0672 | 0.0589 | 0.0662 | 0.0564 | 0.0687 | 0.0617 | 0.0453 | 0.0654 | 0.0653 | 0.0619 | 0.0689 | 0.0611 | 0.055 | 0.0651 | – | 0.0653 | 0.0723 |
| E189G | 0.0564 | 0.0665 | 0.0598 | 0.068 | 0.0616 | 0.038 | – | – | – | 0.0528 | 0.0589 | 0.0679 | 0.0637 | – | – | – | 0.0518 | 0.0622 | 0.0423 |
| E189N | 0.0585 | 0.0651 | 0.0593 | 0.0607 | 0.0726 | – | – | 0.0625 | 0.0669 | 0.0637 | 0.0585 | 0.064 | 0.0904 | 0.0939 | – | 0.0884 | – | 0.0549 | 0.0736 |
